Publication PMC4336329 (PLoS ONE, 2015)
Screen size: about 310,000 compounds; about 14,000 (4.5%) showed an effect of 50% or more. Effects have a minus sign here. The list shows a part of the results.

The compounds below were run against human ether-à-go-go-related gene (hERG) potassium channel (human, UniProt Q12809) (assay: primary screen, population patch clamp on CHO cells stably expressing hERG).
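Note: peak tail current of the secondary pulse compared with the same well before compound.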

Sequence of human ether-à-go-go-related gene (hERG) potassium channel (Q12809 whole entry, looked up): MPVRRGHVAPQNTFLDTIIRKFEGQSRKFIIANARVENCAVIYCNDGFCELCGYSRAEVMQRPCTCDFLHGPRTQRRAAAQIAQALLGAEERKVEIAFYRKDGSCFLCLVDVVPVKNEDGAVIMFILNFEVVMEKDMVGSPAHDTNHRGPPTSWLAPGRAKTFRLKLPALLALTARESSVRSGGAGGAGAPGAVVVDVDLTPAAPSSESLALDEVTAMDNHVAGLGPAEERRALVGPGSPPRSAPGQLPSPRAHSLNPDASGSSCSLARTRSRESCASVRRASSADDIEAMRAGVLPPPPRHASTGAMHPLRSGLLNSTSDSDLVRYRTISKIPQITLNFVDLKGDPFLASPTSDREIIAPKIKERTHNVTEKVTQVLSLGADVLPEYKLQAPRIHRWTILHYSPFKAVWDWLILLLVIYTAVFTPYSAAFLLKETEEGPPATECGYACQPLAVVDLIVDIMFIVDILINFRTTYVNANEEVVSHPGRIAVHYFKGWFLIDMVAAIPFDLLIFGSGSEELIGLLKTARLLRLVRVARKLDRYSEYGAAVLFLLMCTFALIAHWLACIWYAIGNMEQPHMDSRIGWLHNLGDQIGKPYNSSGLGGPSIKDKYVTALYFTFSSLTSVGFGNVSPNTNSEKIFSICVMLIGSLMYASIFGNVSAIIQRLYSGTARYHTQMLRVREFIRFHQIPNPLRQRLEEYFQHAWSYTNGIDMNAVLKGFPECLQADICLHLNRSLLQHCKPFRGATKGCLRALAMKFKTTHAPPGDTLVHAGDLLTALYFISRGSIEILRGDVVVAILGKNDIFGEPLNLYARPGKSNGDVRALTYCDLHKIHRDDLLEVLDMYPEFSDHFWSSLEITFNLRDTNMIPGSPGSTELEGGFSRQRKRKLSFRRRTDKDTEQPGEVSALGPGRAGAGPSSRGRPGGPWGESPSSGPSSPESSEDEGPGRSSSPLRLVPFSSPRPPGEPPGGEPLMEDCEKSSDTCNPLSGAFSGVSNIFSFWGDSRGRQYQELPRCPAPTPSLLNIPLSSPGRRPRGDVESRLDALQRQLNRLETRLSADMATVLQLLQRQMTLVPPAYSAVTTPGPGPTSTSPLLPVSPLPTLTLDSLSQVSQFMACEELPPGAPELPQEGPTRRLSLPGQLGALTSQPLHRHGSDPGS

SMILES | hERG current change (%, negative = inhibition) at 10uM [%]
O=c1c2c(n3cnnc3n1-c1ccccc1)-c1ccccc1CC21CCCC1 | 6.25
CC(=O)Nc1ccc(-c2csc(NC(=O)CN3C(=O)NC4(CCCC4)C3=O)n2)cc1 | 24.3
O=c1c(/C=C(\O)c2ccccc2)nc2ccccc2n1-c1ccccc1 | 10.4
O=C(N/N=C/c1ccc(Br)s1)c1cccnc1 | -5.72
CN(C)S(=O)(=O)c1ccc(/C(O)=C2/C(=O)C(=O)N(Cc3cccnc3)C2c2ccco2)cc1 (stereo not drawn) | 5.35
COc1cc(C2NC(=O)NC(C)=C2C(=O)OC(C)(C)C)ccc1OCC(=O)O (stereo not drawn) | 20.4
CCc1cc(C(=O)OC)c(NC(=O)c2ccoc2C)s1 | 18.5
Cn1ncc(N=Cc2ccccc2O)c1C(=O)Nc1ccccc1 | -1.94
CC(NC(=O)CSc1ccccc1)c1ccccc1 (stereo not drawn) | 26.3
COc1cc(NC(=S)Nc2ccccn2)cc(OC)c1OC | 4.65
CC(C)Sc1nc(SCC(=O)NCc2ccco2)c2c3c(sc2n1)COC(C)(C)C3 | 16.3
CCN1CCN(c2ncc3c(n2)CC(c2ccc(OC)c(OC)c2)CC3=O)CC1 (stereo not drawn) | -16.2
CNc1nc(-c2ccc(OC)cc2)c(-c2ccc(OC)cc2)s1 | -12.7
Cc1ccc(OCC(=O)N2CCN(C(=O)c3ccco3)CC2)cc1 | -37.7
O=C(O)COc1ccccc1/C=N/NC(=O)CSc1nc2ccccc2c(=O)n1-c1ccc(Cl)cc1 | 13.2
Cc1ccc(-n2c(SCC(=O)Nc3ncc(Cl)cc3Cl)nc3ccccc32)cc1 | 6.45
O=C(NCC1CCCO1)c1ccc(NC(=O)c2cc(F)c(F)cc2Cl)cc1 (stereo not drawn) | -3.36
NC(=O)C1(N2CCCCC2)CCN(C(=S)Nc2ccc(F)c(Cl)c2)CC1 | -4.18
CC(=O)Nc1ccc(S(=O)(=O)N2CCC(N3CCCCC3)CC2)cc1 | 14.7
CCN1CCCC1CNS(=O)(=O)c1ccc(C(=O)Nc2ccccc2)cc1 (stereo not drawn) | -10.4
COc1ccccc1C(=O)COC(=O)CCCN=C1NS(=O)(=O)c2ccccc21 | 4.48
CCCCn1c(NCc2ccc3c(c2)OCO3)nc2ccccc21 | -61

SMILES | hERG current change (%, negative = inhibition) at 10uM [%]
CC(C(=O)N(C)C)N1c2cccc3cccc(c23)S1(=O)=O (stereo not drawn) | 15.2
Cn1cnc2c1c(=O)[nH]c(=O)n2Cc1ccccc1 | 4.04
O=C(c1cc2c(s1)CCCC2)N1CCN(S(=O)(=O)c2ccccc2C(F)(F)F)CC1 | 6.23
O=C(NC1CCCCC1)c1ccc(CN2CCOCC2)cc1 | -3.94
Cc1ccc(NC(=O)c2cn(CCC#N)nc2-c2ccc3c(c2)OCCO3)c([N+](=O)[O-])c1 | -33.9
Cc1ccc(S(=O)(=O)N2CCOCC2)cc1C(=O)NCCN1C(=O)S/C(=C\c2ccccc2Cl)C1=O | -10.2
CCOC(=O)CSc1nc2sc3c(c2c(=O)n1C1CCCCC1)CCN(C)C3 | -12.5
C=CCn1c(CCSCc2ccc(OC)c(C)c2)n[nH]c1=S | 9.36
O=C(NC(=S)Nc1ccc(F)c([N+](=O)[O-])c1)c1ccccc1F | 16.5
CCN(C(=O)CCS(=O)(=O)c1ccc(Br)cc1)c1ccc2c(c1)OCO2 | -43.8
CN(CC(=O)Nc1ccccc1C(F)(F)F)C(=O)c1ccc2c(=O)n3c(nc2c1)CCC3 | -8.67
Cc1ccc(CS(=O)(=O)c2cn(CC(=O)N3CCOCC3)c3ccccc23)cc1 | 4.8
CC(C)Oc1ccc(C(=O)OCC(=O)NC(=O)NC2CCCC2)cc1 | -1.95
CC1CCCN(C(=O)COC(=O)CNC(=O)c2sc3ccccc3c2Cl)C1 (stereo not drawn) | -2.36
COc1ccc2c(n1)Sc1nc3ccccc3nc1N2 | 16.9
NC(=O)COC(=O)c1sc2ccccc2c1Cl | 24.3
CC(=O)c1c(C)[nH]c(C(=O)OCC(=O)Nc2ccccc2Cl)c1C | -0.866
CN(C)CCNC(=O)CNC(=S)N(Cc1ccccc1)Cc1cccnc1 | 0.623
CCN1C(=O)CC(c2ccc(OC(C)C)cc2)C1=O (stereo not drawn) | 16.9
CCC(C)c1ccc(NC(=O)C2CCCN(c3ncccn3)C2)cc1 (stereo not drawn) | -7.55
O=C(CN1CC(=O)Oc2ccccc21)NCc1ccco1 | 15.2
CC(NC(=O)CN1C(=O)NC2(CCc3ccccc32)C1=O)c1ccccc1 (stereo not drawn) | 2.81

SMILES | hERG current change (%, negative = inhibition) at 10uM [%]
Cc1ccc(-n2nc3c(=O)n(CCCC(=O)N4CCC(C)CC4)nc(C)c3c2C)cc1 | -30.1
Cc1cc(C)cc(OCC(=O)OCC(=O)Nc2cc(C)nn2-c2ccccc2)c1 | 17.3
OCCN1CCN(c2nnc(-c3ccccc3)c3ccccc23)CC1 | -23.5
O=C(NCc1ccncc1)C1CCCN(S(=O)(=O)c2cc(Cl)ccc2Cl)C1 (stereo not drawn) | -61.2
COc1ccccc1-c1sc2ccccc2c1-c1ccc(C(C)=O)cc1 | 4.86
CC(=O)c1ccc(OCCCC(=O)NCCc2ccc(C(F)(F)F)cc2)cc1 | 8.51
COc1ccc(OC)c(NC(=O)CCNC(=O)Cn2cnc3ccccc3c2=O)c1 | 3.58
Cc1ccnc(SCC(=O)Nc2sc3c(c2C#N)CCCC3)n1 | 5.57
CCOc1ccc(S(=O)(=O)N(CC)CC)cc1NC(=O)c1ccc(N2CCCC2=O)cc1 | 18.2
COC(=O)CSc1nnc(-c2ccccn2)n1N | -8.2
Cc1nc(NC(=O)CC(C)C)sc1-c1csc(Nc2ccc(Cl)cc2)n1 | 3.23
CN1C(=O)/C(=C/c2cn(CC(=O)N3CCCCC3)c3ccccc23)NC1=S | 11.6
COc1cc(C(C(=O)NC2CCCC2)N(C(=O)c2snc(C(N)=O)c2N)C2CCCC2)cc(OC)c1OC (stereo not drawn) | 3.28
Cc1ccc(-c2cc(Cc3ccc(F)cc3)c(=O)[nH]n2)cc1 | 13.1
CC(C)/C=N\NC(=O)CCCCC(=O)N/N=C/C(C)C | 6.11
Cn1c(=O)cc(SCC(=O)NCCC2=CCCCC2)c2ccc(Cl)cc21 | -8.59
CC(C)CN(CC(C)C)CC(O)COc1ccc([N+](=O)[O-])cc1.Cl (stereo not drawn) | -66.8
CCC[C@H](N[C@@H](CCC)[C@H](O)c1ccccc1)[C@H](O)c1ccccc1 | 28.6
CCCc1nnc(NC(=O)c2cc3ccccc3oc2=O)s1 | -7.49
CCCC[C@@H]1CN=C(N)N1CCc1cc(C(F)(F)F)cc(C(F)(F)F)c1 | -20.2
COc1cc(/C=C(/C#N)c2ccc(F)cc2)ccc1Oc1ccc([N+](=O)[O-])cn1 | 11
Cc1cc(C)nc(NC(=NCCc2c[nH]c3ccccc23)NC(=O)Nc2cccc([N+](=O)[O-])c2)n1 | -1.33

SMILES | hERG current change (%, negative = inhibition) at 10uM [%]
CCCn1c(NC(=O)CCS(=O)(=O)c2ccc(C)cc2)nc2ccccc21 | -24.2
O=C(CCl)N1N=C(c2ccco2)CC1c1ccco1 (stereo not drawn) | 14
CCC(C)NC(=O)CNC(=S)N(Cc1ccc(F)cc1)C1CCCCC1 (stereo not drawn) | 6.9
COc1cc([N+](=O)[O-])ccc1NC(=O)Nn1cnnc1 | 9.89
COCOc1ccc(C=O)cc1OCOC | 14.6
COc1ccc(CNC(=O)CSc2nnc3nc(C)cc(C)n23)cc1OC | 0.315
Cc1c(C)c2ccc(OCc3ccc(C(=O)O)o3)c(C)c2oc1=O | 4.38
CC(NC(=O)COc1ccccc1)C(=O)NC1=NCCS1 (stereo not drawn) | 0.963
COc1cccc(N(CC(=O)Nc2ccccc2C(=O)N2CCCC2)S(C)(=O)=O)c1 | 19.1
CC(C)[C@H](NC(N)=O)C(=O)Nc1ccc(Oc2ccccc2)cc1 | 9.16
COc1cccc(N2C(=O)C3CC=C(Cl)CC3C2=O)c1 (stereo not drawn) | -5.03
O=C(c1ccc2c(c1)OCCO2)C1CCN(S(=O)(=O)c2ccccc2F)CC1 | 5.32
NC(=S)N1CCCc2ccccc21 | -3.03
CC1CCCCN1S(=O)(=O)c1ccc(C(=O)Nc2nnc(-c3cccs3)o2)cc1 (stereo not drawn) | -8.87
S=c1[nH]nc(COc2ccccc2)n1C1CCCCC1 | 24.3
Oc1ccc(Br)cc1-c1nc2cnccn2c1NC1CCCCC1 | 1.07
COc1ccccc1N1CCN(C(=O)CSc2nnc(NC(=O)C3CCC3)s2)CC1 | -4.25
Cc1ccc(S(=O)(=O)NC(=O)COc2cc(C)ccc2C(C)C)cc1 | 10.1
COC(=O)CCN(C(=O)c1cc([N+](=O)[O-])cc([N+](=O)[O-])c1)c1ccccn1 | 17.6
CNS(=O)(=O)c1cccc(C(=O)OCC(=O)NCc2ccccc2)c1 | 8.3
CC(=O)Nc1cc[n+](C(C)C(=O)c2ccc(Cl)cc2)cc1.[Cl-] (stereo not drawn) | 25.4
